Results taken from paper PMC3291536.
Results are given in words; binding and its absence hold for the method and conditions named. Binding seen in cells or lysates may run through a third protein. Some results given as binding are weak or reduced against the parent protein; the word gives no strength.

Sequences of proteins named here, by UniProt entry; tags and fusion partners are left off.
UniProt Q8VIG1: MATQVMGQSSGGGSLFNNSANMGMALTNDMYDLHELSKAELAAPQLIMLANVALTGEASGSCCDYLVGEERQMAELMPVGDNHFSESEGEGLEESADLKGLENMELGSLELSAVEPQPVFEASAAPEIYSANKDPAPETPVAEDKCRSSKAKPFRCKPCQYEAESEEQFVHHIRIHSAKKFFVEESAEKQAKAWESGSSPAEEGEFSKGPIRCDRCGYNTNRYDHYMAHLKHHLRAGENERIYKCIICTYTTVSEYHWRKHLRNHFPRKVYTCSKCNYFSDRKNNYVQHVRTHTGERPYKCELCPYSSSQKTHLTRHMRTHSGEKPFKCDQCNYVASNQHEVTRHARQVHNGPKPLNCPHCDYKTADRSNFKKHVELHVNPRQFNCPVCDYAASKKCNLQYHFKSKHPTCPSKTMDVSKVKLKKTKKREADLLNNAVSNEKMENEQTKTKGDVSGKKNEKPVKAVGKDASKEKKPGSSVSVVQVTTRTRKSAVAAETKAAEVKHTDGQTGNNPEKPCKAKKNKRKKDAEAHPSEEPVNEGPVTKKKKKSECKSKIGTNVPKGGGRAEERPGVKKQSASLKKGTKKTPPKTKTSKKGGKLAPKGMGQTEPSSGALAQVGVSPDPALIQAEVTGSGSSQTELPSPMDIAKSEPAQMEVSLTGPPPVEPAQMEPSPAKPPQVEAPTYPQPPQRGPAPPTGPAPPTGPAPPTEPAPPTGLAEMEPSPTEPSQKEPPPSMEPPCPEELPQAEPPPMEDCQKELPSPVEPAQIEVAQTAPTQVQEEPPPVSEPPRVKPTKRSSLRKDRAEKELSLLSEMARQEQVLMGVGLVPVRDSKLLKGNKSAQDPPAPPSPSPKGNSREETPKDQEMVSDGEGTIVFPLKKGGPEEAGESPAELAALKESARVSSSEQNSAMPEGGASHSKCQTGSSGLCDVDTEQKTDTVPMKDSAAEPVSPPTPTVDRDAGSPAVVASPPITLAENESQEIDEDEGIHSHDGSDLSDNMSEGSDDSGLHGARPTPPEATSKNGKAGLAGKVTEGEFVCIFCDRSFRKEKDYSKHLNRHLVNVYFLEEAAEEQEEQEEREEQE
UniProt Q13127: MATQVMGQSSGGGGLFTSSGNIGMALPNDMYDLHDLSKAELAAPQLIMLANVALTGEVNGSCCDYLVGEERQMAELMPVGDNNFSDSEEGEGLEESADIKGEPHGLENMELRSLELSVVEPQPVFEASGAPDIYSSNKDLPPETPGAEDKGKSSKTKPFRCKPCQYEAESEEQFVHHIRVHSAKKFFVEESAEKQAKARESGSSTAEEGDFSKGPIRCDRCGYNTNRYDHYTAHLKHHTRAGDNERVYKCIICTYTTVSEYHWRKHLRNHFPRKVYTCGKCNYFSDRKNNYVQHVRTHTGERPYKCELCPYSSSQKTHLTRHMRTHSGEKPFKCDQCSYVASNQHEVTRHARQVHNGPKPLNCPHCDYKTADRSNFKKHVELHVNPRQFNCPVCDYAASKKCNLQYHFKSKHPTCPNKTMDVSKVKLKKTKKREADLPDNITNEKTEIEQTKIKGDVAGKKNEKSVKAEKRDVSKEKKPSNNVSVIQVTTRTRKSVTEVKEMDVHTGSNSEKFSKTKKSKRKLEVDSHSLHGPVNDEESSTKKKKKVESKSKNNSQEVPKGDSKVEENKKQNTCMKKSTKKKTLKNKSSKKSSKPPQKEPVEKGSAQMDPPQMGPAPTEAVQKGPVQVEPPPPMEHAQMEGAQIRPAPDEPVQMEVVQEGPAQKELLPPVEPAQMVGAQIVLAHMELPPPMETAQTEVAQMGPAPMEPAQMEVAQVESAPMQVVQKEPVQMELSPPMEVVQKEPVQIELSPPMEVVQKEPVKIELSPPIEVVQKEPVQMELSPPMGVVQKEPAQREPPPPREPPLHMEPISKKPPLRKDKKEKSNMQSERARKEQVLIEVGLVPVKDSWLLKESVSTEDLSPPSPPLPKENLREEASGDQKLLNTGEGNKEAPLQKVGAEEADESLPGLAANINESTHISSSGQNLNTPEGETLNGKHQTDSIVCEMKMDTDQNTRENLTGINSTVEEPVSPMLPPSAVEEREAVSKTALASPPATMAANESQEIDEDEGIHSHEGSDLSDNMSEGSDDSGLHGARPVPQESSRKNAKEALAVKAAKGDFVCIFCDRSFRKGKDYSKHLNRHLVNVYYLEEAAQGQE

What was measured:
[1] = target: Rest (mouse) (mouse (endogenous in mES cells)) (UniProt Q8VIG1); experiment: co-IP; anti-Rest or control IgG on pooled size-exclusion fractions (1: F8–10; 2: F11–13; 3: F22) of nuclear extracts from Wt, Eed−/− or Rnf2−/− mES cells; Western blotting
[2] = target: REST (Neuron-Restrictive Silencing Factor) (human (endogenous in NT2-D1 and HEK293)) (UniProt Q13127); experiment: co-IP; anti-REST or control IgG cross-linked to protein A-Sepharose; pooled Superose 6 fractions of NT2-D1 nuclear extract (pool 1: F7–9; pool 2: F11–13; pool 3: F21–22); Western blotting

Row | binding [1] | binding [2] | Binder
1 | binds | – | Nspc1 (mouse) (protein, UniProt Q8R023 1-259) MASPQGGQIAIAMRLRNQLQSVYKMDPLRNEEEVRVKIKDLNEHIVCCLCAGYFVDATTITECLHTFCKSCIVKYLQTSKYCPMCNIKIHETQPLLNLKLDRVMQDIVYKLVPGLQDSEEKRIREFYQSRGLDRVSQPSGEEPALSNLGLPFSSFDHSKAHYYRYDEQLSLCLERLSSGKDKNKNVLQNKYVRCSVRAEVRHLRRVLCHRLMLNPQHVQLLFDNEVLPDHMTMKQLWLSRWFGKPSPLLLQYSVKEKRR
2 | – | binds | CBX8 (protein, UniProt Q9HC52 1-389) MELSAVGERVFAAEALLKRRIRKGRMEYLVKWKGWSQKYSTWEPEENILDARLLAAFEEREREMELYGPKKRGPKPKTFLLKAQAKAKAKTYEFRSDSARGIRIPYPGRSPQDLASTSRAREGLRNMGLSPPASSTSTSSTCRAEAPRDRDRDRDRDRERDRERERERERERERERERERGTSRVDDKPSSPGDSSKKRGPKPRKELPDPSQRPLGEPSAGLGEYLKGRKLDDTPSGAGKFPAGHSVIQLARRQDSDLVQCGVTSPSSAEATGKLAVDTFPARVIKHRAAFLEAKGQGALDPNGTRVRHGSGPPSSGGGLYRDMGAQGGRPSLIARIPVARILGDPEEESWSPSLTNLEKVVVTDVTSNFLTVTIKESNTDQGFFKEKR
